Biological target: the molecule itself
Test: crystal structure; hanging drop vapor diffusion, 100 mM citric acid buffer (pH 5.5), 25% PEG400, room temperature; space group C222(1); dimer formed by a crystallographic two-fold axis; 2.7 Å

B1: human type II Hsp40 Hdj1 putative peptide-binding fragment ([…]) (domain or fragment)
chain: not shown
notes: […] except 228-230 were modelled in the crystal structure; The tag is inferred from the purification on a Nickel-chelating column; also called Hdj1 fragment; Hdj1 ([…]); source: E. coli, purified (Nickel-chelating column, gel filtration Superdex-75)
  stoichiometry N: 2

Source: article PMC2254625, “The crystal structure of the putative peptide-binding fragment from the human Hsp40 protein Hdj1” (BMC Structural Biology, 2008)
